From patent US20260083855A1 (Hoffmann-La Roche, published 2026)

T1: hu IL2R beta-gamma-Fc (P1AD7029-002) (human, UniProt P14784 27-240; P31785 23-262)
T1 construct: Analyte in all SPR runs; also called human IL2R beta-gamma Fc; recombinant human IL2Rbeta-gamma-Fc heterodimer; not shown: Fc part and any linker of the heterodimer
T1 sequence (looked up) 1: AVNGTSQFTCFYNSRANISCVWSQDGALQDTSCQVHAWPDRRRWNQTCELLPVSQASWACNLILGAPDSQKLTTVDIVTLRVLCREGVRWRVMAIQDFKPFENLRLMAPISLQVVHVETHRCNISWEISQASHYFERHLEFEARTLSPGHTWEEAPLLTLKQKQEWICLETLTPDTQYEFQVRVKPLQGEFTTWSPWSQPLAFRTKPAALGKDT
T1 sequence (looked up) 2: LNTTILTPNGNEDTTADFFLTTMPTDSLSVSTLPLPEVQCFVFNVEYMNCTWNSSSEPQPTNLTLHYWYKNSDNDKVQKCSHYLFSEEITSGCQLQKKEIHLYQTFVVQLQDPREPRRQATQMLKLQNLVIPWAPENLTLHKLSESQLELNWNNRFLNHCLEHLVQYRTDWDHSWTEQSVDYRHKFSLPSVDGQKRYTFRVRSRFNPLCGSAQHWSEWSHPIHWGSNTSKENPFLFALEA

T2: IL-2R on human cells (activated CD4 T cells, PBMC subsets, NK92) (human, UniProt P14784 27-551; P31785 23-369)
T2 sequence (looked up) 1: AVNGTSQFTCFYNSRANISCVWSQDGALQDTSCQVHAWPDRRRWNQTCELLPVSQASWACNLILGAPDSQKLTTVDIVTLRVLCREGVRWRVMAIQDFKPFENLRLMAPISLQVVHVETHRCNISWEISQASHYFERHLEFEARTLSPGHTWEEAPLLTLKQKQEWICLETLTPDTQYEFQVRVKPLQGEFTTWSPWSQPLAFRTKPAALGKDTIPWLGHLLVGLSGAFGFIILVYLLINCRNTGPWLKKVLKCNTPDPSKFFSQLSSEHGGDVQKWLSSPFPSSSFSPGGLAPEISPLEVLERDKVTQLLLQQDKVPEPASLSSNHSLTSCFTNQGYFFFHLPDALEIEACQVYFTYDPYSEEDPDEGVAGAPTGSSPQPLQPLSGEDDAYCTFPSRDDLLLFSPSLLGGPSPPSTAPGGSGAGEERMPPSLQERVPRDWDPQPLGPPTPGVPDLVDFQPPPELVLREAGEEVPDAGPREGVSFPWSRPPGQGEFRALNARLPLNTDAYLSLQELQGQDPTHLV
T2 sequence (looked up) 2: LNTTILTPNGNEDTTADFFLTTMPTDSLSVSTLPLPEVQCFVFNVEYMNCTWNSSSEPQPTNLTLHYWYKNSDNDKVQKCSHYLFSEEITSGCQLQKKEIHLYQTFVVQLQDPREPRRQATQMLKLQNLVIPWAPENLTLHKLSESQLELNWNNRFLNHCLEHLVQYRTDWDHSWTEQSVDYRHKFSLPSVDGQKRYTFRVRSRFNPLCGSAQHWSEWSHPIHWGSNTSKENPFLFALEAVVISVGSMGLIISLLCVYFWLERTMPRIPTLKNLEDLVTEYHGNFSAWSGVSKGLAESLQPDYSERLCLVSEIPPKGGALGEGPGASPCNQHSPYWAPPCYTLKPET

B1: PD1 376 IgG-huIL2v D109A (P1AE0497) (other)
light: DIVMTQSPDSLAVSLGERATINCKASESVDTSDNSFIHWYQQKPGQSPKLLIYRSSTLESGVPDRFSGSGSGTDFTLTISSLQAEDVAVYYCQQNYDVPWTFGQGTKVEIKRTVAAPSVFIFPPSDEQLKSGTASVVCLLNNFYPREAKVQWKVDNALQSGNSQESVTEQDSKDSTYSLSSTLTLSKADYEKHKVYACEVTHQGLSSPVTKSFNRGEC
heavy 1: EVQLLESGGGLVQPGGSLRLSCAASGFSFSSYTMSWVRQAPGKGLEWVATISGGGRDIYYPDSVKGRFTISRDNSKNTLYLQMNSLRAEDTAVYYCVLLTGRVYFALDSWGQGTLVTVSSASTKGPSVFPLAPSSKSTSGGTAALGCLVKDYFPEPVTVSWNSGALTSGVHTFPAVLQSSGLYSLSSVVTVPSSSLGTQTYICNVNHKPSNTKVDKKVEPKSCDKTHTCPPCPAPEAAGGPSVFLFPPKPKDTLMISRTPEVTCVVVDVSHEDPEVKFNWYVDGVEVHNAKTKPREEQYNSTYRVVSVLTVLHQDWLNGKEYKCKVSNKALGAPIEKTISKAKGQPREPQVCTLPPSRDELTKNQVSLSCAVKGFYPSDIAVEWESNGQPENNYKTTPPVLDSDGSFFLVSKLTVDKSRWQQGNVFSCSVMHEALHNHYTQKSLSLSPGK
heavy 2: EVQLLESGGGLVQPGGSLRLSCAASGFSFSSYTMSWVRQAPGKGLEWVATISGGGRDIYYPDSVKGRFTISRDNSKNTLYLQMNSLRAEDTAVYYCVLLTGRVYFALDSWGQGTLVTVSSASTKGPSVFPLAPSSKSTSGGTAALGCLVKDYFPEPVTVSWNSGALTSGVHTFPAVLQSSGLYSLSSVVTVPSSSLGTQTYICNVNHKPSNTKVDKKV[human IgG1 Fc with changes not written out]GGGGSGGGGSGGGGSAPASSSTKKTQLQLEHLLLDLQMILNGINNYKNPKLTRMLTAKFAMPKKATELKHLQCLEEELKPLEEVLNGAQSKNFHLRPRDLISNINVIVLELKGSETTFMCEYAAETATIVEFLNRWITFAQSIISTLT
notes: Immunoconjugate: anti-human PD-1 (376) IgG1 PG LALA knob/hole, IL2v variant on the knob heavy chain; also called PD1-IL2v D109A
B2: PD1 376 IgG-huIL2v H79S (P1AE0493) (other)
light: B1 light
heavy 1: B1 heavy 1
heavy 2: EVQLLESGGGLVQPGGSLRLSCAASGFSFSSYTMSWVRQAPGKGLEWVATISGGGRDIYYPDSVKGRFTISRDNSKNTLYLQMNSLRAEDTAVYYCVLLTGRVYFALDSWGQGTLVTVSSASTKGPSVFPLAPSSKSTSGGTAALGCLVKDYFPEPVTVSWNSGALTSGVHTFPAVLQSSGLYSLSSVVTVPSSSLGTQTYICNVNHKPSNTKVDKKV[human IgG1 Fc with changes not written out]GGGGSGGGGSGGGGSAPASSSTKKTQLQLEHLLLDLQMILNGINNYKNPKLTRMLTAKFAMPKKATELKHLQCLEEELKPLEEVLNGAQSKNFSLRPRDLISNINVIVLELKGSETTFMCEYADETATIVEFLNRWITFAQSIISTLT
notes: Immunoconjugate; also called PD1-IL2v H79S
B3: PD1 376 IgG-huIL2v K8S (P1AE0488) (other)
light: B1 light
heavy 1: B1 heavy 1
heavy 2: EVQLLESGGGLVQPGGSLRLSCAASGFSFSSYTMSWVRQAPGKGLEWVATISGGGRDIYYPDSVKGRFTISRDNSKNTLYLQMNSLRAEDTAVYYCVLLTGRVYFALDSWGQGTLVTVSSASTKGPSVFPLAPSSKSTSGGTAALGCLVKDYFPEPVTVSWNSGALTSGVHTFPAVLQSSGLYSLSSVVTVPSSSLGTQTYICNVNHKPSNTKVDKKV[human IgG1 Fc with changes not written out]GGGGSGGGGSGGGGSAPASSSTSKTQLQLEHLLLDLQMILNGINNYKNPKLTRMLTAKFAMPKKATELKHLQCLEEELKPLEEVLNGAQSKNFHLRPRDLISNINVIVLELKGSETTFMCEYADETATIVEFLNRWITFAQSIISTLT
notes: Immunoconjugate: anti-human PD-1 (376) IgG1 PG LALA knob/hole, IL2v variant on the knob heavy chain; also called PD1-IL2v K8S
B4: PD1 376 IgG-huIL2v L12A (P1AE0490) (other)
light: B1 light
heavy 1: B1 heavy 1
heavy 2: EVQLLESGGGLVQPGGSLRLSCAASGFSFSSYTMSWVRQAPGKGLEWVATISGGGRDIYYPDSVKGRFTISRDNSKNTLYLQMNSLRAEDTAVYYCVLLTGRVYFALDSWGQGTLVTVSSASTKGPSVFPLAPSSKSTSGGTAALGCLVKDYFPEPVTVSWNSGALTSGVHTFPAVLQSSGLYSLSSVVTVPSSSLGTQTYICNVNHKPSNTKVDKKV[human IgG1 Fc with changes not written out]GGGGSGGGGSGGGGSAPASSSTKKTQAQLEHLLLDLQMILNGINNYKNPKLTRMLTAKFAMPKKATELKHLQCLEEELKPLEEVLNGAQSKNFHLRPRDLISNINVIVLELKGSETTFMCEYADETATIVEFLNRWITFAQSIISTLT
notes: Immunoconjugate: anti-human PD-1 (376) IgG1 PG LALA knob/hole, IL2v variant on the knob heavy chain; also called PD1-IL2v L12A

Tests used:
[1] = biological target: T1, hu IL2R beta-gamma-Fc (P1AD7029-002); assay: SPR, purified, captured via anti-human Fc, IL2Rbg-Fc analyte, 1:1 Langmuir
Excerpt: Bulk refractive index differences were corrected for by subtracting the response obtained on the reference flow cell 1.

[2] = biological target: T2, IL-2R on human cells (activated CD4 T …); assay: cell-based or functional assay; set-up: AUC of STAT5-P on PD1+ T cells / AUC of STAT5-P on PD1-blocked T cells: unit not given beside the values
[3] = biological target: human PD-1 on activated CD4 T cells (human, UniProt Q15116 25-288); assay: cell-based or functional assay; set-up: AUC of STAT5-P on PD1+ T cells / AUC of STAT5-P on PD1-blocked T cells: unit not given beside the values
UniProt Q15116, sequence (Q15116 25-288 limits assumed): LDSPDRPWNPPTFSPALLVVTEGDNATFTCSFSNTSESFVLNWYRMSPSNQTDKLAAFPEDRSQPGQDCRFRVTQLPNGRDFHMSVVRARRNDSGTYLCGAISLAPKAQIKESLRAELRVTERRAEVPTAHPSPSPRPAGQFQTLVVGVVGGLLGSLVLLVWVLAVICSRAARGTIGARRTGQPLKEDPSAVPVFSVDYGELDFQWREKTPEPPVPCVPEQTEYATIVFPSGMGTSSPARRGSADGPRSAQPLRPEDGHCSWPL

Binder	Kd [1]	koff [1]	kon [1]	AUC of STAT5-P on PD1+ T cells [2]	AUC of STAT5-P on PD1-blocked T cells [2]	Potency reduction vs PD1-IL2v [2]	Cis-delivery: fold increase in EC50, EC50 [with PD1bl]/EC50 [PD1+] [3]
B1	0.09 nM	1.87e-05 s⁻¹	216000 M⁻¹ s⁻¹	216	118	1.12 fold	24.3 fold
B2	0.05 nM	9.2e-06 s⁻¹	210000 M⁻¹ s⁻¹	204	112	1.51 fold	16.9 fold
B3	0.002 nM	3.07e-07 s⁻¹	186000 M⁻¹ s⁻¹	201	99.7	1.49 fold	26.7 fold
B4	0.13 nM	2.64e-05 s⁻¹	196000 M⁻¹ s⁻¹	197	84.1	1.49 fold	44.5 fold
